Test results as given in the supplement of paper PMC3334620.
Whole data set: some 33,000 sequences, median “E-score (-0.5 to 0.5)” near -0.036, cut for the highest 2% near 0.37. The list shows a part of the results.

Target: T1, Yer064c (UniProt P40041)
T1 sequence: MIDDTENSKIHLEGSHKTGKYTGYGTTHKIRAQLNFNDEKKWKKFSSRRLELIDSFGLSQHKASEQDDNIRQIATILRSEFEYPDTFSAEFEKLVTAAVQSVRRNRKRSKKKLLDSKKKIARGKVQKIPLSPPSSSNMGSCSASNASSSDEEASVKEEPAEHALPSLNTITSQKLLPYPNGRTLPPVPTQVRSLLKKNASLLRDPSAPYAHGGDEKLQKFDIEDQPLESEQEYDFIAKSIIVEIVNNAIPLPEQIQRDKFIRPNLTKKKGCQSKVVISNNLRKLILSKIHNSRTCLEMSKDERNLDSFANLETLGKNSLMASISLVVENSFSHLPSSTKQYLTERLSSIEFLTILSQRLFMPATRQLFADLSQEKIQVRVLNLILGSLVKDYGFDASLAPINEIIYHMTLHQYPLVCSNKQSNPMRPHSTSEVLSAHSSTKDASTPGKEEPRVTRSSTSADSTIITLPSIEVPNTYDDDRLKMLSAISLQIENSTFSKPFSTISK
Assay: PBM E-score (8-mer binding enrichment) (E-score (-0.5 to 0.5)); higher = stronger / more preferred TF binding; most listed sequences are background and not binding sites
Details: protein concentration: 200 nM; construct: GST-full length
In short: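 Full-length yeast transcription factors or their DNA-binding domains, GST-tagged and expressed with PURExpress, were applied at about 100-200 nM to universal all-10-mer Agilent arrays. These arrays had been made double-stranded by primer extension on fresh or once-stripped slides. Detection used fluorescent anti-GST, normalisation used masliner, and E-scores for ungapped eight-base words pooled with reverse complements came from the Universal PBM Analysis Suite.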

In order of falling “PBM E-score” value:
1. AGTCGTCA  0.389
2. AGTAAGTC  0.354
3. ACTAAGAC  0.335
4. GAATCGTA  0.261
5. ACGAGTAC  0.259
6. ATGGAATC  0.249
7. CTCATGGC  0.221
8. CTCACCAA  0.183
9. ATCAAGAG  0.175
10. AGATTACA  0.174
11. AGATTAGA  0.158
12. TCGTATAA  0.157
13. GATTCGCC  0.139
14. AATGAACA  0.129
15. CTCGTCAA  0.129
16. TTAAACAA  0.128
17. AGGCTCAA  0.111
18. ACATCTCT  0.098
19. CCAAAGAG  0.0884
20. CATTGATC  0.061
21. TACCAACA  0.0555
22. GTTCGCGA  0.0471
23. ACCGAGAC  0.0452
24. GACGAGCC  0.0215
25. AAATAACC  0.0207
26. GGCTATAA  0.0182
27. CAGTTTCC  0.0161
28. ATTTGTCC  0.00587
29. GTATACGA  0.00578
30. TCTGTGCA  0.0016
31. ACACGGCG  -0.00051
32. AATCCCGC  -0.00446
33. AGTTATAC  -0.0065
34. ACGCGTAA  -0.00741
35. ATGAATGG  -0.00961
36. CGAATACG  -0.0137
37. GGTCAACC  -0.0162
38. ATGTATAC  -0.0163
39. ACGACCCA  -0.0194
40. CCAATCTA  -0.0221
41. CGCCAGTA  -0.0231
42. CAACCGTG  -0.0244
43. CCCTACAA  -0.0271
44. AGCTTTAA  -0.0271
45. CTATCTAC  -0.029
46. CTAGCTTC  -0.0301
47. ACCACAGG  -0.0474
48. GAGGTGAA  -0.0478
49. GCTAAACC  -0.0482
50. GCAACAGA  -0.0573
51. AACCTCAT  -0.0612
52. CAAAAGGC  -0.0635
53. AAGGAATA  -0.0678
54. ATCTCACG  -0.0745
55. CGTATACC  -0.0832
56. GGCAAAAA  -0.0878
57. AAAACGCG  -0.0879
58. CAGCACCC  -0.0897
59. GCATGTCA  -0.0942
60. TAGAGGGA  -0.0956
61. CCGTCATC  -0.098
62. CTTCCCTC  -0.101
63. CTGTCCCA  -0.101
64. CGTCGAAA  -0.101
65. ATCCTTAG  -0.107
66. ACCTCCCT  -0.107
67. CATTTTCC  -0.112
68. CCCACATC  -0.112
69. TGGAGAAA  -0.129
70. CAAAGCGC  -0.133
71. GGAGGGTA  -0.133
72. AATTTTGG  -0.135
73. CCTCAGCC  -0.144
74. CGGGCCTA  -0.145
75. CGGACCAG  -0.149
76. CAACCTCG  -0.15
77. GAGCTGCA  -0.152
78. CGCAATTC  -0.153
79. AGATAGAT  -0.159
80. AACATTTG  -0.159
81. GAACTTTA  -0.16
82. GCTTCAAC  -0.16
83. ACCCGGAT  -0.167
84. CACGCCCA  -0.171
85. ATACGCCA  -0.173
86. GCTGGCAC  -0.175
87. ACCACCTC  -0.175
88. AGAGGAGG  -0.184
89. TGGCCAAA  -0.187
90. ATTGGACC  -0.188
91. CGGCATCC  -0.188
92. ACGTGCGA  -0.198
93. GAGCCGCC  -0.205
94. GATCGTAC  -0.212
95. CGGCGGGA  -0.213
96. GAGAGCAA  -0.221
97. ACCGGAGC  -0.223
98. CTGTAAAC  -0.228
99. AAGTTCGT  -0.231
100. CATCCGGG  -0.241
101. AAGCAGGT  -0.246
102. GGCCGAAC  -0.254
103. ACGCCACA  -0.269
104. ATCCCGCC  -0.272
105. CGGCCACA  -0.272
106. GCATGCTA  -0.292
107. AAGGTCCG  -0.313
108. GGCACGCC  -0.33
109. GCCTGACA  -0.338
110. CCCTCCGG  -0.363
